B1: LINE1-mini (parent)
chain: GGCAGAGCUCAACACAGCGUGGCAAAGUGGCUGUGGCUAGACUGCC

Read counts are not given, so values of variants with three or more changes are uncertain.

In the data set the parent is B1. Description: self-cleavage, relative activity (ratio to wild type); higher = more cleavage; in vitro, sequencing; the parent is a self-cleaving ribozyme.
For the variant GGCAAAGGUCAACACAGCGUGGCAAAGUGGCUGUUGCUAGACUGCC, the self-cleavage was 0.15. Regarding GGCAAAGGUCAACACAGCGUGGCAAAGUGGAUGUGGCUAGACCGCC, the self-cleavage is 0.17. As for GGCAAAGCUCAACGCAGCGUGGCAAAGUGGCUGUGUCUAGUCUGCC, the self-cleavage is 0.11. On to GGCAAAGCUCAUCACAGCGUGGCAAGGUGGCUGUGGCUAGAUUGCC, for which the self-cleavage turned out to be 0.08. Take GGCAAAGCUCAGCACAGCGUGGCAAAGUGGCUGUGGCUAGACUUCC: the self-cleavage amounted to 0.02. Regarding GGCAAAGCUCAUCACAGCGUGGCAAAGUGGCUGGGGCUAGCCUGCC, the self-cleavage stood at 0. As for GGCAAAGCUCAACACUGCGUGGCAAAGUGGAUGUGGCUAGACUGCC, the self-cleavage was determined as 0.03. Take GGCAAAGCUCAACGCAGCGAGGCAAAGUGGCUGUGGCUAGACUGCC: the self-cleavage stood at 0.03. In the case of GGCAAAGCUCAACUCAGCGUGGCAAAGUGUCUGUGGCUAGACUGCC, the self-cleavage was found to be 0.06. As for GGCAAAGCUCAACACAGCGUGGCAGCCUGGCUGUGCCUAGACUGCA, the self-cleavage is 0.04. Regarding GGCAAAGCUCAACACAGCGUGGCAAAGUGGCUGUGGCUGGUCUGCC, the self-cleavage came out at 0.04. The result for GGCAAAGCUCAACCCACCGUCGCAAAGUGGCUGUGGCUAGACUGUG reads 0.03. On to GGCAAAGCUCAGCACAGCGUGGCAAAGUGGCGGUGGCUAGACUGCC, for which the self-cleavage is 0.04.

On to GGCAAAGCUCAACACAGCGUGGCACAGCGGCUGUGGCUAGACUUCC, for which the self-cleavage was 0.05. For GGCAAAGCUCAUUAAAGCGUGGUUAAGUGGCUGUGUCUAGACUGCC, the self-cleavage amounted to 0.02.

On to GGCAAAGCUCAACUUAGCGUGGCAAAGUGGCUGUGGCUAGACUGCC, for which the self-cleavage amounted to 0.13. Take GGCAAAGCUCACCACAGCGUGGCAAAGUGUCUGUGGCUAGACAGCC: the self-cleavage is 0.02. For GGCAAAGUUCAACACAGUGUGGCAAAGUGGCCGUGGCUAGACUGCC, the self-cleavage was found to be 0.05.

As to GGCAAAGCUCAACCCAGCGUGGCAAAGUGUCUGUGGCUAGACUGUC, the self-cleavage was 1.96. Turning to GGCAAAGCUCACCACAGCGUGGCAAACUGGCUGUGGCUAGACUGCC, the self-cleavage came to 0.01. As to GGCAAAGCUCUACACAGCCGGGCAAAGUGGCUGUGGCUAGACUGCC, the self-cleavage amounted to 0.01.

Consider GGCAAAGCUCAUCACCUCGUGGCAAAGUGGCUGUGGCUCCACUUCA, for which the self-cleavage came to 0.01. The value for GGCAAAGCUCAUCACUGCGUGGGAAAGUGGCUGUGGCUAGACUGCC was 0.05; that for GGCAAAGCUCAACACAGCGUGGCCAAGUGGCUGUGGCUAGCCUGCC was 0.04. For the variant GGCAAAGCUCAACCCAGCGUGGCUAAGUGGCUGUAGCUAGACUACC, the self-cleavage was determined as 0.04. As to GGCAAAGCUCUACACAGCGUAGGAAAGUGGCUGUGGCUAGGAUGCC, the self-cleavage worked out at 0.01. GGCAAAGCUCGACACAGCGUGGCAAAGUGGCUGUGGCUAGACUUCC: the self-cleavage amounted to 0.03. The value for GGCAAAGCUCAACGCAGCGUGGCAAUGUGGCUGUGGCUAAACUGCU was 0.11; that for GGCAAAGCUCAACGCAGCGUGGCAAUGUGCCUGUGGCUAGACUGCC was 0.15; that for GGCAAAGCUCAACGCAGCGUGGCAAAGUGGCUGUGGCCAGACUGCC was 0.14.

Turning to GGCAAAGCUCAGAACAGCGUGGCAAAGUGGCUGUGGCUAGACUGCC, the self-cleavage is 0.05. In the case of GGCAAAGGUCAACACAGCGUGGAAAAGUGGAUGUGGCUAGACUGCC, the self-cleavage turned out to be 0.25.

For the variant GGCAAAGCUCAACACAGCGUGGCAAAGUGGCUGUGGCUUGACUGUC, the self-cleavage worked out at 0.07. GGCAAAGGUCAAAACAGCGUGGCACAGUGGCUGGGGCUAGACUGCC: the self-cleavage stood at 0.04.

Turning to GGCAAAGCUCAACACAGCGUGGCAAGGUGGCUGUGGCUAGACUACC, the self-cleavage is 0.1. For the variant GGCAAAGCUCACCACAGAGUGGCAAAGUGGCUGUGGCUAGACUGCC, the self-cleavage was 0.01. Consider GGCAAAGCUCAACACAGCGUGGCUAAGUGGCUUUGGCUAGACUGCC, for which the self-cleavage is 0.06. Take GGCAAAGCUCAACGCAGCGUGGCAUAUUGGCUACGGCUAGACUGCC: the self-cleavage stood at 0.13. As for GGCAAAGUUAAACACAGCGUGGCAAAGUGGCUGUGGCUAGACUGCA, the self-cleavage stood at 0.02. On to GGCAAAGAUCAACACUGCGUGGCAAAGUGGCUGUGGCCAGACUGCC, for which the self-cleavage turned out to be 0.15. For the variant GGCAAAGCUCAUCUCAGCGUGGCAAAGUCGCUGUGGCUAGACUGCA, the self-cleavage worked out at 0.03. For the variant GGCAAAGGUCAACACAGCAUGGCAAAGUGGCUGUGGCUAGACUGCC, the self-cleavage was 0. With GGCAAAGCUCAACACGGCGUGGCAGAGUGGAUGUGGCUAGACUGCC, the self-cleavage is 0.02. Regarding GGCAAAGUUCACCACAGCGUGGCAAAGUGGCUGUGGCUAGUUUGCC, the self-cleavage was 0.01. The result for GGCAAAGCUCAACUCAGCGCGGCAAAGUGGCUGUGGCUAUACUGCC reads 0.16. GGCAAAGCUCACCACAACGUGGCAAAGUGGUUGUGGCUAGACUGCC: the self-cleavage was found to be 0.01.

For GGCAAAGAUCAACACAGCGUGGGAAAGUGCCUGUGACUAGACUGCC, the self-cleavage amounted to 0.14.

For the variant GGCAAAGGUCAACACAGCGUGGCGAAGUGGCUGUGGCUAGACUGCC, the self-cleavage is 0.05. Regarding GGCAAAGAUCAACACAGCGCGCCAAAGUGGCUGUGGCUAGACUGCC, the self-cleavage turned out to be 0.15. As for GGCAAAGGUCAACACAGCGUGGCAAAGUGGCUGUAGUUAGAUUGCC, the self-cleavage is 0.07.

For the variant GGCAAAGGUCAACUCAGCGUGGCAAAGUGGCUGUGGCUAGACUGCC, the self-cleavage is 0.13. As to GGCAAAGCUCAACCGAACGUGGAAAAGUGGCAGUGGCUAGACUGCC, the self-cleavage was 0.03. Take GGCAAAGCUCAACUCACCGUGGCAAAGUGGCUGUGGCUAGACUGCC: the self-cleavage worked out at 0.11. As to GGCAAAGCUCAACACAGCGUGGCAGAUUGGCUGUGGCUAGACUUCC, the self-cleavage was 0.05. Take GGCAAAGUUCAAAACAGCGUGGCAAAGUGGCUGUGGCUAGACUGCA: the self-cleavage was determined as 0.65.

GGCAAAGCUCAACACGGCGUGUCAAAGUGGCUGUGGCUAGACUGCC: the self-cleavage is 0.03.

For the origin of these results see the RNAGym collection of RNA variant scans (doi:10.7554/elife.90254).
